# Measured values from PubChem BioAssay AID360 (National Center for Advancing Translational Sciences (NCATS), 2006).
# Screen size: about 48,000 compounds; about 550 (1.1%) were called active. Roughly 4% stayed inconclusive and do not appear here. No stated cut-off is given here; in the data, active means potency below about 15 µM; inconclusive means mostly about 16 µM to 33 µM; inactive means weaker than that. Some of the results follow.
# Molecular target: Lysosomal acid glucosylceramidase (Homo sapiens) (UniProt P04062)
# UniProt P04062, sequence (P04062 whole entry, looked up): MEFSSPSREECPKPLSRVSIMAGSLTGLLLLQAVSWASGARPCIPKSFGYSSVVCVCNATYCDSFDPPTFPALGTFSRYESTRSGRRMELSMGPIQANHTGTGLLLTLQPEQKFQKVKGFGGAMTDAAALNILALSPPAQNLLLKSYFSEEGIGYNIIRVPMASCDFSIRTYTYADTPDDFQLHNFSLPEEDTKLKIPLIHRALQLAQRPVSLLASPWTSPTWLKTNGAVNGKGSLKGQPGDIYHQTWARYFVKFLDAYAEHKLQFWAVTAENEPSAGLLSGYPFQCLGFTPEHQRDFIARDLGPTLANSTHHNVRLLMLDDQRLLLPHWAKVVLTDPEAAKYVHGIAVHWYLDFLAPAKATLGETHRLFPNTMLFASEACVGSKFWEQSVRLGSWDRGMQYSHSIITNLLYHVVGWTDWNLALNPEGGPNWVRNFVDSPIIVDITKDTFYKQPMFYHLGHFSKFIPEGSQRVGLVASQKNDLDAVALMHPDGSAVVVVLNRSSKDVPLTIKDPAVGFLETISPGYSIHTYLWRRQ
# Experiment: Glucocerebrosidase;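 further: the screen sought inhibitors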
# Conditions: purified enzyme, resorufin glucoside fluorescence (screen aimed at inhibitors), 20 min
# Outline: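 Normal human glucocerebrosidase (0.2 nM final) was assayed with resorufin β-D-glucopyranoside (30 uM final) in 50mM citric acid/KH2PO4, 10mM sodium taurocholate, 0.01% tween-20, pH 5.9. Compounds were titrated; fluorescence (Ex 548, Em 600) read after 20 min at RT.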
# Potency means the concentration at half of the fitted maximal effect.
row,Compound,Potency
1,CCN1C(=O)/C(=C/N(C)C)c2ccccc21,inactive: > 76.9 µM
2,CSc1ncccc1C(=O)OCC(=O)c1cc2ccccc2o1,inactive: > 76.9 µM
3,COc1ccc(Cc2nnc3n2N=C(c2cc4ccccc4o2)CS3)cc1OC,inactive: > 76.9 µM
4,CCOc1ccc(NC(=O)c2ccco2)cc1,inactive: > 76.9 µM
5,CCC(C)C(NC(=O)c1ccccc1NC(=O)c1ccc(OC)cc1)C(=O)NCc1ccco1 (configuration not stated),inactive: > 76.9 µM
6,CCCCn1c(CN2CCN(c3cccc(Cl)c3)CC2)nc2c1c(=O)n(C)c(=O)n2C,inactive: > 76.9 µM
7,Cc1cccc(S(=O)(=O)Nc2nc3ccccc3nc2NCc2ccco2)c1,inactive: > 76.9 µM
8,CC1CCCN(C(=O)Cc2ccc(F)cc2)C1 (configuration not stated),inactive: > 76.9 µM
9,COc1ccc(F)cc1S(=O)(=O)n1cc(C)nc1-c1ccccc1,inactive: > 76.9 µM
10,Cc1nnc(SCC(=O)n2c3c(c4ccccc42)CCCC3)s1,inactive: > 76.9 µM
11,COc1ccc(C(=O)n2nc(C)cc2C)cc1OC,inactive: > 76.9 µM
12,CS(=O)(=O)N(CCc1ccccc1)CC(=O)NCc1cccnc1,inactive: > 76.9 µM
13,CN(C)c1ccc(CN(C(=O)COc2ccc(Br)cc2)C2CCS(=O)(=O)C2)cc1 (configuration not stated),inactive: > 76.9 µM
14,Cc1ccnc(SCCn2c(N3CCCCC3)nc3c2c(=O)n(C)c(=O)n3C)n1,inactive: > 76.9 µM
15,CSc1nc(NCCOCCO)c2sc3nc(-c4ccco4)c4c(c3c2n1)CCC4,inactive: > 76.9 µM
16,O=C(N1CCN(c2ccccc2F)CC1)C12CC3CC(CC(C3)C1)C2,inactive: > 76.9 µM
17,Cn1c(=O)c(C(=O)Nc2cnccn2)c(O)c2ccccc21,inactive: > 76.9 µM
18,CC(=O)Nc1ccc(SCC(=O)OCC(=O)NC(=O)NCc2ccco2)cc1,inactive: > 76.9 µM
19,CC1(C)CC(=O)CC(=Nc2ccc(C(=O)O)cc2)C1,inactive: > 76.9 µM
20,CC1(C)Cc2nc(N3CCOCC3)c(C#N)cc2CO1,inactive: > 76.9 µM
21,CC(C(=O)N1c2ccccc2Sc2ccccc21)n1nnc(-c2cccs2)n1 (configuration not stated),inactive: > 76.9 µM
22,Cc1cc(OCc2nn[nH]n2)c2c(-c3ccccc3)cc(=O)oc2c1,inactive: > 76.9 µM
23,O=c1nc2s/c(=C\c3ccco3)c(=O)n2nc1Cc1ccc(F)cc1,inactive: > 76.9 µM
24,CCSc1nc2c(c(=O)[nH]c(=O)n2C)n1Cc1ccc(Cl)cc1,inactive: > 76.9 µM

row,Compound,Potency
1,COc1ccc(C2CCCN2C(=O)c2cccs2)cc1 (configuration not stated),inactive: > 76.9 µM
2,COc1cc(-c2nnc3sc(Cc4ccc(Cl)cc4)nn23)cc(OC)c1OC,inactive: > 76.9 µM
3,O=C(c1cc2ccccc2oc1=O)N1CCN(Cc2ccc3c(c2)OCO3)CC1,inactive: > 76.9 µM
4,CCOC(=O)c1c(C)[nH]c(C(=O)Nc2ccc3c(c2)OCO3)c1C,active: 12.9 µM
5,COc1cc(C2C(C(=O)c3ccc(C)o3)=C(O)C(=O)N2CCc2ccccc2)ccc1O (configuration not stated),inactive: > 76.9 µM
6,O=C(COC(=O)C1=COCCO1)Nc1ncc(C(F)(F)F)cc1Cl,inactive: > 76.9 µM
7,CC1CN(C(=O)c2cccc(S(=O)(=O)N3CCOCC3)c2)CC(C)O1 (configuration not stated),inactive: > 76.9 µM
8,Cc1ccc(-n2nnnc2SCc2nnc(-c3ccccc3Br)o2)c(C)c1,inactive: > 76.9 µM
9,COc1nnc(-c2ccc(N3CCOCC3)c(NC(C)=O)c2)c2ccccc12,inactive: > 76.9 µM
10,COc1ccccc1-c1nnc2n1N=C(C)CS2,inactive: > 76.9 µM
11,COCCNC(=O)c1ccccc1-c1nc(-c2ccccc2OC)no1,inactive: > 76.9 µM
12,Cc1ccc(Cn2nnc3c(=O)n(CC(=O)N4CCCc5ccccc54)cnc32)cc1,inactive: > 76.9 µM
13,COC(=O)c1cccc(N2C(=O)c3ccccc3S2(=O)=O)c1,inactive: > 76.9 µM
14,C=CCNC(=O)NC(=S)c1ccccc1,inactive: > 76.9 µM
15,COC(=O)c1[nH]c2ccccc2c1NC(=O)CN1CCCCCC1,inactive: > 76.9 µM
16,Cc1cc(NC(=O)CSc2nc3ccsc3c(=O)n2NC(=O)c2ccccc2)no1,inactive: > 76.9 µM
17,Cc1cccc(C)c1NC(=O)N1CCN(C2CCCCC2)CC1,inactive: > 76.9 µM
18,CC1CCC(C(C)C)C(OC(=O)COC(=O)c2cccn2C)C1 (configuration not stated),inactive: > 76.9 µM
19,CCOC(=O)N1CCN(CC(=O)Nc2ccc(OC)cc2)CC1,inactive: > 76.9 µM
20,O=C(NO)C1CC2C=CC1C2 (configuration not stated),inactive: > 76.9 µM
21,Fc1cnc(N2CCN(c3ccccc3)CC2)nc1N1CCN(c2ccccc2)CC1,inactive: > 76.9 µM
22,Cc1csc2nc(CSc3nncn3-c3ccccc3)c(Br)n12,inactive: > 76.9 µM
23,CN1C(=O)NC(c2cccc(O)c2)C(C(=O)c2cccs2)C1(O)C(F)(F)F (configuration not stated),inactive: > 76.9 µM
